Test results from PMC4336329 (PLoS ONE, 2015).
Out of some 310,000 compounds screened, about 2,200 (0.71%) showed an effect of 50% or more. Effects have a minus sign here. This is one part of the list.

The molecules below were run against human ether-à-go-go-related gene (hERG) potassium channel (human, UniProt Q12809) (assay: primary screen, population patch clamp on CHO cells stably expressing hERG).
Sequence of human ether-à-go-go-related gene (hERG) potassium channel (Q12809 whole entry, looked up): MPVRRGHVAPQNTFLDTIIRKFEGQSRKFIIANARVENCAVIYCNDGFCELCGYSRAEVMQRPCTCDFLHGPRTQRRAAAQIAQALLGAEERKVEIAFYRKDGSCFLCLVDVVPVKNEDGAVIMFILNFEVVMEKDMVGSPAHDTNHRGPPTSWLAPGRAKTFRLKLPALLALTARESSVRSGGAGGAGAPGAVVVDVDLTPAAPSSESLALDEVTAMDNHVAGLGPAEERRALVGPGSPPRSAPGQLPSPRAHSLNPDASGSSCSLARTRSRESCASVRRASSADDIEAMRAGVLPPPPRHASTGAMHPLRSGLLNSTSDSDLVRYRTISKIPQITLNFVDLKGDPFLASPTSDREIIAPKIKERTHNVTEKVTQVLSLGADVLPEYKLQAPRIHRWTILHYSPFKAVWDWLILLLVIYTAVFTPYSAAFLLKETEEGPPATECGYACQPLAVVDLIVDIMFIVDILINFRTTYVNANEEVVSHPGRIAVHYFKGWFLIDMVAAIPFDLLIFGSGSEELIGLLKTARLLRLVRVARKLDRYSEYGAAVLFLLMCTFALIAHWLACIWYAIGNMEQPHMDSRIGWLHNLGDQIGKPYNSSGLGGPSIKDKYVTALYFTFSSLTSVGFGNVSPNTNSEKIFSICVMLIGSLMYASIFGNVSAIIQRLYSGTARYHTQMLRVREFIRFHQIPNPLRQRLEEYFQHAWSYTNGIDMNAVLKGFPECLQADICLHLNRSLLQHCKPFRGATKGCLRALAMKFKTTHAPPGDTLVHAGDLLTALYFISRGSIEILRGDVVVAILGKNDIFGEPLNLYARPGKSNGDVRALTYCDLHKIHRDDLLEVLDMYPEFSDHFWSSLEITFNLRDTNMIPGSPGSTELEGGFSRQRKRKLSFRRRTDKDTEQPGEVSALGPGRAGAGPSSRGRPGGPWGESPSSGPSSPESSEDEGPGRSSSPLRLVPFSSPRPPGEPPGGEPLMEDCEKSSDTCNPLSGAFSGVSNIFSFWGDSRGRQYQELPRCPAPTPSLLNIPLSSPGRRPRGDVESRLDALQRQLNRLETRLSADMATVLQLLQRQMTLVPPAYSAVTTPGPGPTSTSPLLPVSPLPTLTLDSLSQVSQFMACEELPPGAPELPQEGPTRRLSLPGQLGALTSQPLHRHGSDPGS

Structure (SMILES)	hERG current change (%, negative = inhibition) at 1uM [%]
CC(=O)Nc1ccc(OCC(O)Cn2nc(C)nc2C)cc1 (stereo not drawn)	16.7
Cc1cc(=O)oc2cc(OCC(=O)OCC(=O)N(CCC#N)c3ccccc3)ccc12	13.6
CCOC(=O)C(C(=O)OCC)C(C)C#CCN1CCCCC1 (stereo not drawn)	4.43
COc1cc2c(C(=O)N(C)c3ccc(F)cc3)cn(C)c(=O)c2cc1OC	16.1
Cc1cc(S(=O)(=O)Nc2ccc(C(=O)NCC(c3ccco3)N(C)C)cc2)ccc1F (stereo not drawn)	-0.374
CCN(CC(=O)NCCN1CCOCC1)S(=O)(=O)c1ccc(F)cc1	9.38
Cc1nc2c(c(N3CCOCC3)n1)OCC(=O)N2	3.44
CCOC(=O)CNC(=O)CSc1ccc(-c2nc3ccccc3[nH]2)cn1	4.05
COc1ccc(Cl)cc1NC(=O)CN(C)C1CCCCC1	-4.31
O=C(CSc1ccc(-c2ccco2)nn1)c1cccc([N+](=O)[O-])c1	4.71
Cc1c(O)ccc2c(=O)c(Oc3ccccc3)coc12	17.4
COc1ccccc1OCCOCCOc1ccc(C)cc1[N+](=O)[O-]	6.27
CCOC(=O)c1c(C)[nH]c(C(=O)N2CCc3cc(OC)c(OC)cc3C2)c1C	1.03
O=S(=O)(c1cccc(S(=O)(=O)N2CCCC2)c1)c1cccc(S(=O)(=O)N2CCCC2)c1	2.77
Clc1ccccc1N1CCN(Cc2c[nH]c3ccccc23)CC1	7.93
CC(=O)Nc1ccc(NC(=O)CN(c2cccc(C(C)=O)c2)S(C)(=O)=O)cc1	5.75
O=C(Nc1cccc2ccccc12)c1ccccc1NS(=O)(=O)c1cccc2cccnc12	2.69
Nc1c(N(CCO)C(=O)COc2ccc(Cl)cc2)c(=O)[nH]c(=O)n1Cc1ccccc1	4.25
CCOc1cc(C)c(S(=O)(=O)NCCCn2ccnc2)cc1C	13.7
COC(=O)CCc1nc2c(C#N)c(-c3ccc(Cl)cc3)ccn2n1	3.54
Cc1nonc1C(=O)N/N=C/c1cc2c(cc1Br)OCO2	13.2
COc1ccccc1NC(=O)Cn1cnc2sc(C(=O)Nc3ccc(OC)c(OC)c3)c(C)c2c1=O	34.4

Structure (SMILES)	hERG current change (%, negative = inhibition) at 1uM [%]
CCOC(=O)c1c(NC(=S)Nc2ccccc2)sc2c1CCCCC2	12.8
O=C(NCc1ccccc1)C(c1ccc(F)cc1)N(Cc1cccs1)C(=O)c1cnccn1 (stereo not drawn)	8.73
Cn1c(=O)c2c(nc(SCCN3CCOCC3)n2Cc2ccccc2)n(C)c1=O	-5.7
Cc1cccc(N2CCN(C(=O)Cn3nc(C)n4cccc4c3=O)CC2C)c1 (stereo not drawn)	12
COc1ccc(/C=N/NC(=O)c2ccc3nc[nH]c3c2)c(OC)c1OC	12.2
O=C(O)CSCNC(=O)C12CC3CC(CC(C3)C1)C2	-0.117
Cc1nc2ncnn2c(N2CCC(C(=O)NC3CCCC3)CC2)c1Cc1ccccc1	-28.4
Cc1ccc(S(=O)(=O)Nc2cc(C)c(O)c(Sc3n[nH]c(C)n3)c2)cc1	8.18
COc1ccc(-c2c3c(=O)n(C)c(=O)n(C)c3cn2C2CCCCC2)cc1	2.7
COc1ccc(COC(=O)C2=C(C)NC(=O)NC2c2cccc(OC)c2OC)cc1 (stereo not drawn)	9.89
Cc1c(C(=O)N2CCCC2)sc(NC(=O)c2cccc(Cl)c2)c1C#N	18.8
CC(=O)c1cccc(OCc2cc(C(=O)N(C)CCc3cnn(C)c3)no2)c1	14.2
O=C(NC(=S)Nc1ccc(N2CCOCC2)c(Cl)c1)C(c1ccccc1)c1ccccc1	6.04
COc1ccc(C(=O)NC(NC(=O)c2ccc(OC)cc2)c2ccccc2F)cc1	8.42
CCCCc1nc2cc(C(=O)N3CCC(OC)CC3)ccc2o1	3.01
N=c1c(C(=O)NCC2CCCO2)cc2c(=O)n3ccccc3nc2n1Cc1ccccc1 (stereo not drawn)	-72.3
c1ccc(CCCNCC2COc3ccccc3O2)cc1 (stereo not drawn)	0.427
Cc1ccccc1S(=O)(=O)NCc1ccc(N2CCN(C)CC2)cc1	7.99
CC1C(=O)N2CCCc3cc(NS(=O)(=O)c4ccc([N+](=O)[O-])cc4)cc1c32 (stereo not drawn)	3.74
COc1ccc2c(COC(=O)CCS(=O)(=O)c3ccccc3)cc(=O)oc2c1	-5.66
COCC(=O)Nc1nc2n(n1)C(c1ccccc1)CC(c1ccc(OC)cc1)N2 (stereo not drawn)	-0.0279
COC(=O)CCCSc1nccn1-c1ccccc1	-11

Structure (SMILES)	hERG current change (%, negative = inhibition) at 1uM [%]
COC(=O)c1ccc(-n2nnnc2SCc2ccccc2OC)cc1	13.7
O=C(OC(c1ccccc1)c1nccc2ccccc12)c1cccc([N+](=O)[O-])c1 (stereo not drawn)	12.7
COc1ccc(CN2CCNC(=O)C2CC(=O)NCc2cccc(C)n2)c(OC)c1 (stereo not drawn)	6.45
Cc1ccc(S(=O)(=O)N(C)c2ccc(C(=O)N3CCOCC3)cc2)cc1	12.6
Cc1ccc(-c2nnc(SCC(=O)NC3CCCC3)n2C)cc1	16.3
COc1ccc(NCc2cc3ccccc3[nH]c2=O)cc1	10.1
CCOC(=O)Cc1csc(NC(=O)CCS(=O)(=O)Cc2ccccc2)n1	13.6
COc1ccccc1C(=O)CSc1ccccn1	3.31
Oc1ccc(N=Nc2ccc(Br)cc2)c(O)c1	9.69
COc1ccc(-c2cc(C(=O)OCC(=O)N3CCCC3)c3ccccc3n2)cc1	1.85
O=C(c1ccc(Cl)cc1)N1CCCOC1	13.4
COc1ccc(C(=O)N2CCN(c3ccc(NC(=O)c4cccnc4)cc3)CC2)cc1	-13.7
Br.CC(=O)N1c2ccccc2C2(O)N=C(C)SC12 (stereo not drawn)	15.9
Cc1ccc(S(=O)(=O)N2CCCCC2)cc1NC(=O)COC(=O)c1ccccc1F	3
Cn1cccc1/C=C1/C(=O)NC(=S)N(Cc2ccc(F)cc2)C1=O	-2.42
N=c1ncn(CC(O)CN2CCOCC2)c2nc(N3CCOCC3)[nH]c12 (stereo not drawn)	0.764
COc1ccc(C2/C(=C(/O)c3ccc(F)cc3)C(=O)C(=O)N2CCCN2CCOCC2)cc1OC (stereo not drawn)	13
Cc1cc(C)c2c(n1)nn1c(N3CCN(c4ccccc4C)CC3)cc(C)nc21	10.9
COCCNC(=O)CN1C(=O)CSc2cc(S(=O)(=O)N3CCCCCC3)ccc21	9.78
Cc1nnc(NC(=O)CCCOc2ccccc2)s1	8.42
O=C(NCc1ccco1)/C(=C/c1ccc(C(F)(F)F)cc1)c1nc2ccccc2[nH]1	10.6
Cc1ccccc1N(C(=O)c1snc(C(N)=O)c1N)C(C(=O)NC1CCCCC1)c1ccc(O)cc1 (stereo not drawn)	12.3

Structure (SMILES)	hERG current change (%, negative = inhibition) at 1uM [%]
Cc1cc(C(=O)COC(=O)[C@H](C)NC(=O)c2ccco2)c(C)n1Cc1ccco1	5.95
O=C(NC1CCCCC1)c1ccccc1NC(=S)NC(=O)C1CCC1	1.35
O=c1oc2ccccc2c(Nc2ccc(Cl)cc2)c1[N+](=O)[O-]	12.7
CCOC(=O)C(=NCCCN1CCOCC1)NNc1cccc(C(F)(F)F)c1	10.4
Cc1cccc(-c2ocnc2C(=O)N2CCN(C(=O)c3cccs3)CC2)c1	14.8
COC(=O)[C@H](Cc1c[nH]c2ccccc12)NC(=O)NCc1ccc(OC)cc1	10.8
O=C(Nc1ccc(N2CCN(C(=O)c3ccccc3)CC2)cc1)c1cccnc1	11
COc1ccc(OC)c2c(C)cc(N3CCN(C(=O)c4ccc(Cl)cc4)CC3)nc12	9.55
S=c1[nH]nc(Cn2nnc3ccccc32)n1-c1ccccc1	14.9
NC(=O)c1ccccc1OCC(=O)O	3.73
NC(=O)c1c(NC(=O)c2ccncc2)sc2c1CCCC2	10.8
CC(c1ccco1)N(C(=O)c1ccccc1NS(=O)(=O)c1cc([N+](=O)[O-])ccc1Cl)c1ccccn1 (stereo not drawn)	18
O=C(CCCc1c[nH]c2ccccc12)Nc1ccc2ccccc2c1	12.9
CCc1ccc(OCC(=O)NC(C)C)cc1	8.07
COc1cccc(-c2ccc(SCC(=O)NC3CCCC3)nn2)c1	9
COc1cc(=O)[nH]c(SCc2c(F)c(F)c(F)c(F)c2F)n1	4.74
Cc1ccc(C(=O)O)cc1[N+](=O)[O-]	13.3
Cc1cccc(Nc2nnc(SCC(=O)Nc3ccccc3[N+](=O)[O-])s2)c1	17.9
CC(C)C(OC(=O)c1cccs1)C(=O)NCc1ccc(F)cc1 (stereo not drawn)	17
CC(Oc1ccc(F)cc1)C(=O)Nc1cc(S(=O)(=O)N2CCCCC2)ccc1N1CCOCC1 (stereo not drawn)	14.1
Nc1cc(S(=O)(=O)N2CCCCC2)ccc1N1CCOCC1	8.17
